# Test results reported in article PMC6919601, “Identification of Plasmodium dipeptidyl aminopeptidase allosteric inhibitors by high throughput screening” (PLoS ONE, 2019).
# Hit rate of the full screen: of about 110,000 compounds, about 230 (0.21%) showed an effect of 50% or more. Some of the results follow.
# Target: DPAP1 (Plasmodium falciparum, UniProt Q8IIJ9)
# Experiment: primary screen, percent inhibition; read by cleavage of a fluorogenic dipeptide substrate; higher = more effect of the substance
# Design: species or system P. falciparum D10 trophozoite lysates; single well
# 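Further: 30 min substrate incubation versus DMSO and 10 µM JCP410 controls.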
# Chain of DPAP1 (Q8IIJ9 whole entry, looked up): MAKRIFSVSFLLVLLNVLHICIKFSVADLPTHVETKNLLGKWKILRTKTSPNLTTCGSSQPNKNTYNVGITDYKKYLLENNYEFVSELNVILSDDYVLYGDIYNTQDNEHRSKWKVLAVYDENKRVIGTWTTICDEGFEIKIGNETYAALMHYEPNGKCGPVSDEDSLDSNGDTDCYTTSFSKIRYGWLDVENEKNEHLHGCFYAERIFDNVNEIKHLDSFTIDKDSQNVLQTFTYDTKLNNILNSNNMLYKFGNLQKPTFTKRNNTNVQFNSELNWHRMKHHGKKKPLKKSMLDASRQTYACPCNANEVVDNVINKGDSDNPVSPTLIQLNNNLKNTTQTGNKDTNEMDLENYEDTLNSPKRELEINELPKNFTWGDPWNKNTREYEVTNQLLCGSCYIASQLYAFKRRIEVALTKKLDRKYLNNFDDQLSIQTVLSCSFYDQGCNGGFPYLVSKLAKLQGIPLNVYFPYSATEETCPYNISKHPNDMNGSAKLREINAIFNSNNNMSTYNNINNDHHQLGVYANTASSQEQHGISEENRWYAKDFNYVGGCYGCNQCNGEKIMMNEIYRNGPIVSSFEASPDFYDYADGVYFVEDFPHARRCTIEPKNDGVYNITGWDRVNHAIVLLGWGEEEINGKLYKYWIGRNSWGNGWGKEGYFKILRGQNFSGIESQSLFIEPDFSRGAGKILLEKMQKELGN
row,Structure (SMILES),% Inhibition @ 10 uM [%]
1,CC1=C(C(=O)OCCCc2ccccc2)C(c2cccs2)NC(=O)N1C (stereo not drawn),5.55
2,COc1ccc(S(=O)(=O)NCC2CCC(C(=O)O)CC2)cc1 (stereo not drawn),-0.256
3,Cc1ccc(-c2csc(/C(C#N)=C/c3ccc([N+](=O)[O-])cc3)n2)c(C)c1,0.247
4,O=C(Nc1cccc([N+](=O)[O-])c1)[C@@H]1C2C=CC(C2)[C@@H]1C(=O)O (stereo partly drawn),-0.999
5,Cc1ccc(Nc2nc(-c3ccc(S(=O)(=O)N4CCCC4)cc3)cs2)cc1C,-0.771
6,COc1ccc(NC(=O)CN(C2CCCCC2)S(C)(=O)=O)cc1Cl,1.17
7,COCCCNC(=O)c1cc(-c2ccc(Cl)s2)nc2ccccc12,4.32
8,CC(C)C[C@H](NC(=O)OCc1ccccc1C(F)(F)F)C(=O)NCC#N,-4.72
9,O=C(O)C/N=C1\CC(c2ccccc2)CC(O)=C1C(=O)CCCN1C(=O)c2ccccc2C1=O (stereo not drawn),-2.19
10,CCOc1ccc(NC(=O)c2cc3ccccc3cc2OC)cc1,-1.66
11,CSc1[nH]c2ccccc2c1CC(=O)N(C)C,2.48
12,O=C(Nc1ccc(SC(F)(F)F)cc1)Nc1ccc(Cl)c(Cl)c1,-6.11
13,O=C(CSc1cn(CC(=O)N2CCOCC2)c2ccccc12)NCCc1ccccc1,-0.264
14,CCCc1nn(-c2ccc(F)cc2)c(O)c1/C=N/Cc1ccccc1Cl,-6.08
15,CCCN1CCC(Nc2cc(-c3ccccc3)ccc2OC)CC1,-1.82
16,CNc1c(Cl)cnn(-c2cccc(C(F)(F)F)c2)c1=O,2.46
17,COc1ccc(NC(=O)c2ccc(C)c(Br)c2)cc1,2.42
18,CC(C)C[C@H](NC(=O)c1csc(Nc2ccncc2)n1)C(=O)NCC#N,3.19
19,CCCCN1C(=O)c2cccc3c(NCCCOC)ccc(c23)C1=O,-12.8
20,CCCN1CC=C2C(C1)C(c1cccc(C(F)(F)F)c1)C(C#N)=C(N)C2(C#N)C#N (stereo not drawn),2.32

row,Structure (SMILES),% Inhibition @ 10 uM [%]
1,COc1cccc(C(=O)N2CCN(Cc3ccc(OC)cc3OC)CC2)c1,-9.65
2,Cn1c2ccccc2c2cnnc(O)c21,1.43
3,CCc1ccc(/C=C2\SC(N3CCOCC3)=NC2=O)cc1,5.05
4,COCCCn1c(=O)c2sccc2n2c(CCCC(=O)NC3CCCCCC3)nnc12,4.98
5,O=C(c1ccco1)N1CCN(C(=O)c2ccc(CS(=O)c3cccc(Cl)c3)o2)CC1 (stereo not drawn),-5.74
6,COC(=O)c1c(NC(=O)/C(C#N)=C/c2ccc(OC)cc2)sc2c1CCC(C)C2 (stereo not drawn),1.37
7,N#Cc1nc(/C=C/c2cccs2)oc1NCc1ccc(F)cc1,4.83
8,CCOC(=O)NS(=O)(=O)c1cnccc1Nc1cccc(C(F)(F)F)c1,-0.115
9,CCOC(=O)c1c(C)[nH]c(C)c1S(=O)(=O)N1CCC(C(=O)NCC2CCCO2)CC1 (stereo not drawn),-3.44
10,CCCN(CCC)S(=O)(=O)c1ccc(NC(=O)C2CCCO2)cc1 (stereo not drawn),0.408
11,Cn1c(C(=O)N2CCC(C(=O)NCCN3CCC(Cc4ccccc4)CC3)CC2)cc2sccc21,3.4
12,CCOC(=O)C1=C(C)N=c2s/c(=C\c3cccs3)c(=O)n2C1c1ccc(N(C)C)cc1 (stereo not drawn),2
13,COc1ccc2c(c1)CCC1=C2N=C(S)NC1c1ccc(C)cc1 (stereo not drawn),-3.23
14,O=C(NC(Cc1c[nH]c2ccccc12)C(=O)NCc1ccccc1)c1ccccc1 (stereo not drawn),1.88
15,Cc1ccc(C(=O)/C=C/c2cn(CC(O)CN3CCOCC3)c3ccccc23)cc1 (stereo not drawn),-5.36
16,COc1cc(C(=O)NCCC(=O)NCCCN2CCCCC2C)cc(OC)c1OC (stereo not drawn),-0.519
17,COCc1cc(C)nc(SCC(=O)Nc2ccc(F)c(F)c2F)c1C#N,3.05
18,Cc1cc(N2CCN(C3CCCCC3)CC2)nc2cc(O)ccc12,-2.88
19,CCOc1ccc(-c2nn3c(-c4cc(OC)c(OC)c(OC)c4)nnc3s2)cc1,56.2
20,CC(C)C[C@H](NC(=O)OCCOc1ccccc1)C(=O)NCC#N,9.99

row,Structure (SMILES),% Inhibition @ 10 uM [%]
1,CCn1c(C)[n+](CC)c2cc(S(=O)(=O)N3CCCCC3)ccc21,-4.48
2,CCOC(=O)N1CCN(C(=O)CSc2nnc(-c3ccc4c(c3)OCCO4)o2)CC1,7.15
3,COc1ccc(CN(C(=O)COc2ccc(Br)cc2)C2CCS(=O)(=O)C2)cc1 (stereo not drawn),3.87
4,CCN(CC)CCN1C(=O)C(O)=C(C(=O)c2cccs2)C1c1ccc(C)o1 (stereo not drawn),-10.8
5,COc1ccc(C2C3=C(O)CC(C)(C)CC3=NC(C)=C2C(=O)Nc2ccc(F)cc2)c(OC)c1 (stereo not drawn),-4.48
6,Cc1cc(C(F)(F)F)n2nc(CNC(=O)c3ccccc3)nc2n1,-2.17
7,COc1ccc(C2C(C(=O)OC(C)C)=C(C)N=c3s/c(=C\c4ccc(C)o4)c(=O)n32)cc1 (stereo not drawn),3.66
8,COc1ccccc1N1CCN(Cc2ccccc2Cl)CC1,3.16
9,Cc1ccccc1CN1CCN(CC(=O)NCc2ccc(F)cc2)C1=O,-0.971
10,Cc1ccc(-c2nc(CS(=O)(=O)CC(=O)NC3CCCC(C)C3C)c(C)o2)cc1 (stereo not drawn),-0.138
11,CCOC(=O)N1CCN(C(=O)c2cc3c(Cl)nc4ccccc4c3s2)CC1,-2.45
12,COc1ccc(C2C(C#N)=C(N)N(c3nc[nH]n3)C3=C2C(=O)CC(C)(C)C3)c(OC)c1 (stereo not drawn),-0.99
13,Cc1ccc(C(=O)NCc2ccc(S(N)(=O)=O)cc2)cc1C,-5.58
14,CCOC(=O)c1c(C)[nH]c(C)c1S(=O)(=O)N(C)CC(=O)NCc1cccs1,2.24
15,CN1CCCC/C1=N\CCn1cnc2c1c(=O)n(C)c(=O)n2C,-10.2
16,CCOc1ccc(C(=O)N2CCN(c3ccc(F)cc3)CC2)cc1,1.92
17,O=C(O)CCC(=O)Nc1cccc2c(NC(=O)CCC(=O)O)cccc12,-4.61
18,Cc1cc(C(=O)Nc2c(C)nn(Cc3c(Cl)cccc3Cl)c2C)no1,-0.591
19,NC(=O)c1ccc(-n2nnnc2SCC(=O)c2ccc(O)c(O)c2)cc1,1.62
20,c1c2c(cc3c1OCO3)OCN(CCOC13CC4CC(CC(C4)C1)C3)C2,3.5
